TGI data for one molecule are collected here from PubChem BioAssay (NCI).

The structures appear in SMILES notation.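 Compound exposure: 48 hours, 5 concentrations, 96-well plates. TGI marks complete inhibition of growth.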 Some entries of the source have several records that differ or are many. Only these are listed. There may be further records. The records of an entry are repeated measurements in other runs, samples, wells, individuals or studies. Records carry a tag for their origin. Letters hold for one entry only.

The subject of the experiment is MDA-MB-468 breast. Nature of the experiment: inhibition of tumour cell growth, NCI panel, 48 h.

With `NC1(c2ccc(-c3nc4ccn5c(=O)[nH]nc5c4cc3-c3ccccc3)cc2)CCC1`, the TGI was 179 nM [sample A, mean of 3 tests] and 1.87 µM [sample B, mean of 2 tests] and 1.96 µM [sample C, mean of 2 tests].
